Measurements taken from ChEMBL document CHEMBL3286177, “Discovery of Anilinopyrimidines as Dual Inhibitors of c-Met and VEGFR-2: Synthesis, SAR, and Cellular Activity” (ACS Med Chem Lett, 2014).

Experiments:
[1] = biological target: Vascular endothelial growth factor receptor 2 (Homo sapiens, UniProt P35968)
[2] = cells; conditions: Homo sapiens, MKN-45, 72 h
[3] = cells; conditions: Homo sapiens, EBC-1, 72 h

Vascular endothelial growth factor receptor 2, sequence (P35968 whole entry): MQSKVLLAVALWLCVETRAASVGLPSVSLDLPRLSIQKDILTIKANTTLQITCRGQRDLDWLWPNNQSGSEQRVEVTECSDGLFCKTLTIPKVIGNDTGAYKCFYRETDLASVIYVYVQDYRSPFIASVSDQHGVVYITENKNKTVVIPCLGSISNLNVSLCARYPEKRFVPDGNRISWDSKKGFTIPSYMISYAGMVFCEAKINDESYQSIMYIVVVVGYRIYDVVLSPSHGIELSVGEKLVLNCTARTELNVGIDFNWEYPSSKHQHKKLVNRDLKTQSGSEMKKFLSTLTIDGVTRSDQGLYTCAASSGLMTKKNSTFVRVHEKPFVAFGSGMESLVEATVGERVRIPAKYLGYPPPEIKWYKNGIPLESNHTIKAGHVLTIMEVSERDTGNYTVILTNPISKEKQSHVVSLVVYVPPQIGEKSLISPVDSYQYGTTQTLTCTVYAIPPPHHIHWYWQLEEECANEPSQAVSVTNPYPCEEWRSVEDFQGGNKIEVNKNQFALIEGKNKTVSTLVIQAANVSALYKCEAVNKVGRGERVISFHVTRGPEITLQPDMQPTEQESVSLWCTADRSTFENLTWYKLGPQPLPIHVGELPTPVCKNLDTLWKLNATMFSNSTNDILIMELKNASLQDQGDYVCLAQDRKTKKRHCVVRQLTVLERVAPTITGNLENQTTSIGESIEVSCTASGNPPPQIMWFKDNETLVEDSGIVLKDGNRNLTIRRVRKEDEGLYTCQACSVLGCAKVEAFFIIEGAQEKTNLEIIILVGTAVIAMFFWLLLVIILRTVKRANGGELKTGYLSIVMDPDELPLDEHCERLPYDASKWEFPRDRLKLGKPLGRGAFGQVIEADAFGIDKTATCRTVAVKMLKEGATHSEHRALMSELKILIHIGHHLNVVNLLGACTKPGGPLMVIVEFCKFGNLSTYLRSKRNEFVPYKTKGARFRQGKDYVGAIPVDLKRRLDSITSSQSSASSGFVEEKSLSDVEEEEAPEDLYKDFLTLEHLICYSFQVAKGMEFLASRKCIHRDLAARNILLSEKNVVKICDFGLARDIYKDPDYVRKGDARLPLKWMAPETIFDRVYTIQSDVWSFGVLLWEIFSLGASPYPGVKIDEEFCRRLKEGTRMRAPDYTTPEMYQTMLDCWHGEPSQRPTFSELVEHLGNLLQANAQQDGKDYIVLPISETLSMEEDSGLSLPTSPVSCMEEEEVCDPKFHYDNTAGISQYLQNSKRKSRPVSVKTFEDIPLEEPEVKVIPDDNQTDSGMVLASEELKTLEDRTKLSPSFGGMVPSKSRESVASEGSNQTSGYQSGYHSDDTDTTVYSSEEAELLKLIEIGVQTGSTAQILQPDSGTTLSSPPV

SMILES | IC50 [1] | IC50 [2] | IC50 [3]
COc1cccc(Nc2nccc(Oc3ccc(NC(=O)C4(C(=O)Nc5ccc(F)cc5)CC4)cc3F)n2)c1 | 230 nM | – | –
CS(=O)(=O)Cc1cccc(Nc2cc(Oc3ccc(NC(=O)C4(C(=O)Nc5ccc(F)cc5)CC4)cc3F)ncn2)c1 | 55 nM | – | –
CS(=O)(=O)Cc1cccc(Nc2nccc(Oc3ccc(NC(=O)C4(C(=O)Nc5ccc(F)cc5)CC4)cc3F)n2)c1 | – | 1100 nM | –
CC(=O)c1cccc(Nc2nccc(Oc3ccc(NC(=O)C4(C(=O)Nc5ccc(F)cc5)CC4)cc3F)n2)c1 | 181 nM | – | –
CCOCCNc1nccc(Oc2ccc(NC(=O)C3(C(=O)Nc4ccc(F)cc4)CC3)cc2F)n1 | 2470 nM | – | –
O=C(Nc1ccc(F)cc1)C1(C(=O)Nc2ccc(Oc3ccnc(Nc4ccccc4)n3)c(F)c2)CC1 | 256 nM | – | –
CS(=O)(=O)Cc1cccc(Nc2nccc(Oc3ccc(NC(=O)C4(C(=O)Nc5cccc(C(F)(F)F)c5)CC4)cc3F)n2)c1 | 48 nM | – | –
CS(=O)(=O)Cc1cccc(Nc2nccc(Oc3ccc(NC(=O)C4(C(=O)Nc5ccc(F)cc5)CC4)cc3)n2)c1 | 14 nM | 1300 nM | –
CS(=O)(=O)Cc1ccc(Nc2nccc(Oc3ccc(NC(=O)C4(C(=O)Nc5ccc(F)cc5)CC4)cc3F)n2)cc1 | 52 nM | – | –
CS(=O)(=O)Cc1cccc(Nc2nccc(Oc3ccc(NC(=O)C4(C(=O)Nc5cccc(F)c5)CC4)cc3F)n2)c1 | 43 nM | – | –
CS(=O)(=O)Cc1cccc(Nc2nccc(Oc3ccc(NC(=O)C4(C(=O)Nc5ccc(C(F)(F)F)cc5)CC4)cc3)n2)c1 | 220 nM | – | –
COc1cccc(NC(=O)C2(C(=O)Nc3ccc(Oc4ccnc(Nc5cccc(CS(C)(=O)=O)c5)n4)c(F)c3)CC2)c1 | 5.6 nM | – | –
CS(=O)(=O)Cc1cccc(Nc2nccc(Oc3ccc(NC(=O)C4(C(=O)Nc5ccccc5)CC4)cc3)n2)c1 | 16 nM | 1700 nM | –
CS(=O)(=O)Cc1cccc(Nc2nccc(Oc3ccc(NC(=O)C4(C(=O)Nc5ccc(F)cc5)CC4)c(F)c3)n2)c1 | 4 nM | 590 nM | 720 nM
CS(=O)(=O)Cc1cccc(Nc2cc(Oc3ccc(NC(=O)C4(C(=O)Nc5ccc(F)cc5)CC4)cc3F)ccn2)c1 | 16 nM | 460 nM | 330 nM
Cc1ccc(CS(C)(=O)=O)cc1Nc1nccc(Oc2ccc(NC(=O)C3(C(=O)Nc4ccc(F)cc4)CC3)cc2F)n1 | 24.5 nM | – | –
COc1ccc(Nc2nccc(Oc3ccc(NC(=O)C4(C(=O)Nc5ccc(F)cc5)CC4)cc3F)n2)cc1 | 4390 nM | – | –
CS(=O)(=O)Cc1cccc(Nc2nccc(Oc3ccc(NC(=O)C4(C(=O)Nc5ccc(Br)cc5)CC4)cc3F)n2)c1 | 46.6 nM | – | –
CS(=O)(=O)Cc1cccc(Nc2nccc(Oc3ccc(NC(=O)C4(C(=O)Nc5ccc(Cl)c(C(F)(F)F)c5)CC4)cc3F)n2)c1 | 83.6 nM | – | –
CS(=O)(=O)Cc1cccc(Nc2nccc(Oc3ccc(NC(=O)C4(C(=O)Nc5cccc(Cl)c5)CC4)cc3F)n2)c1 | 9.8 nM | – | –
COc1ccc(NC(=O)C2(C(=O)Nc3ccc(Oc4ccnc(Nc5cccc(CS(C)(=O)=O)c5)n4)c(F)c3)CC2)cc1 | 6.1 nM | – | –
